{
  "source": "PubChem BioAssay AID504332",
  "about": "(National Center for Advancing Translational Sciences (NCATS), 2011)",
  "note": "“And” between values parts separate entries of the source, which are not always exact repeats. Equal values may be shown once. In all, about 350,000 compounds went through this assay and about 31,000 (8.9%) were called active. Inconclusive results, whose numbers are uncertain, are shown with a selection of clear calls. Calls follow the shape of the dose curve; as a rule, active = well fitted inhibition curve with a large enough effect; inconclusive = small, poorly fitted or top-dose-only effect; inactive = no such curve, though single readings can be large or run the other way. Potencies of inconclusive entries are doubtful fits and often do not repeat. % is scaled to controls: 0 for no effect and ±100 for the full control effect; potency is read from the fitted curve at half-maximal effect; tags tell the direction and shape of the fitted curve.",
  "data": [
    {"biological_target": "Histone-lysine N-methyltransferase EHMT2 (Homo sapiens) (UniProt Q96KQ7)", "sequence (Q96KQ7 whole entry, looked up)": "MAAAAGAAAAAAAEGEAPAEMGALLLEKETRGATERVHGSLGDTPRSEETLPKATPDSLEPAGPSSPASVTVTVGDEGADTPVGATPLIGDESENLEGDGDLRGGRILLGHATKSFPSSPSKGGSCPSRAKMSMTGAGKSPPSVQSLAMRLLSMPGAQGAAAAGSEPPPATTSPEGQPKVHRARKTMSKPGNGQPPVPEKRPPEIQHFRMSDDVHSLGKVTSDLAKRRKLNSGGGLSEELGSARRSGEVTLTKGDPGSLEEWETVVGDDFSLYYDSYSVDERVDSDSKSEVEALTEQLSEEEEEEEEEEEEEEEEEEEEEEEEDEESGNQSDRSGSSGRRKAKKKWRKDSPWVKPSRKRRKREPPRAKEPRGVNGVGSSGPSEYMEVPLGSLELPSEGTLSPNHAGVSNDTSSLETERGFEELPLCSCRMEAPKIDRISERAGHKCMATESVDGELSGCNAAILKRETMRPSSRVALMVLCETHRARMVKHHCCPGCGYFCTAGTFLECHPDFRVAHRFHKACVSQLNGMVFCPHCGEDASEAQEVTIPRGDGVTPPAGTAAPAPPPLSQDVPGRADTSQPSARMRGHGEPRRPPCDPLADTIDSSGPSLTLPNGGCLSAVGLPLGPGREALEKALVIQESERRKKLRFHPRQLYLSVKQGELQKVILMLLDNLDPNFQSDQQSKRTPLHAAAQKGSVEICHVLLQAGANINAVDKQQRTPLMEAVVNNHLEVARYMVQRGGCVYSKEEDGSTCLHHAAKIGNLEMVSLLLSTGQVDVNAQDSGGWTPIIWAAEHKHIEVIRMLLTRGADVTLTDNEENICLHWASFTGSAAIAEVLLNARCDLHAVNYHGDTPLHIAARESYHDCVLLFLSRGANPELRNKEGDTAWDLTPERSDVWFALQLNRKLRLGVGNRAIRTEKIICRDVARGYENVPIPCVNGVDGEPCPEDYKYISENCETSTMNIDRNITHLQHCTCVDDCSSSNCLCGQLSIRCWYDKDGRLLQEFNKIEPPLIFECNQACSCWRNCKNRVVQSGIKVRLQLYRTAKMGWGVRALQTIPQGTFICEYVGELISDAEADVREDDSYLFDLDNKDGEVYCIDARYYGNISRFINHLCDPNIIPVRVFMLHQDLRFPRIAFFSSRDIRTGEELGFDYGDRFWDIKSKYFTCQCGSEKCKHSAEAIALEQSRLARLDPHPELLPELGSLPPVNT", "assay": "qHTS Assay for Inhibitors of Histone Lysine Methyltransferase G9a; also: nearly all actives have a fitted effect of over 75% in size", "settings": "G9a H3K9 monomethylation, AlphaScreen, 2 h; activity, negative = inhibition: at 59 µM (top of the series) unless noted", "outline": "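AlphaScreen detection with an anti-monomethyl H3K9 antibody quantified product after a 2 h room-temperature reaction containing 500 nM biotinylated H3K9 peptide, 20 µM SAM and 20 nM enzyme, which had been preincubated 15 min with compound.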", "values": [
      {"molecule": "COc1cc(Nc2ncc3c(n2)CCN(Cc2ccc(OC(C)C)c(OC)c2)C3)cc(OC)c1", "Potency": "inconclusive: 28.2 µM [inhibitor, single point]"},
      {"molecule": "COc1cccc(C(C(=O)NC(C)(C)C)N(C(=O)CCC(=O)Nc2cc(C)on2)c2ccc3c(c2)OCCO3)c1OC", "note": "(configuration not stated)", "activity, negative = inhibition": "inactive: 10.5% [at 102 µM]"},
      {"molecule": "CC(=O)Oc1ccccc1/C=C/c1nc2ccccc2c(=O)o1", "Potency": "inconclusive: 50.1 µM [inhibitor, partial curve, poor fit]"},
      {"molecule": "CCOC(=O)c1[nH]c2ccc(Br)cc2c1NC(=O)CCN1CCCC(C)C1", "note": "(configuration not stated)", "Potency": "inconclusive: 79.4 µM [inhibitor, partial curve, poor fit]"},
      {"molecule": "Cc1ccc(-c2nc(NCc3ccco3)c3ccccc3n2)cc1", "Potency": "inconclusive: 35.5 µM [inhibitor, single point]"},
      {"molecule": "Cc1nc(-c2ccc(Cl)cc2)sc1C1(C)CC(c2cccc([N+](=O)[O-])c2)=NO1", "note": "(configuration not stated)", "activity, negative = inhibition": "inconclusive: -72.5% [inhibitor]"},
      {"molecule": "O=C(Nc1nncs1)c1cccnc1Cl", "Potency": "active: 1.41 µM"},
      {"molecule": "COc1ccccc1NC(=S)NNC(=O)c1cc(C)nn1C", "Potency": "inconclusive: 25.1 µM [inhibitor, single point]"},
      {"molecule": "COC(=O)c1sc2nc(CSc3nc4ccc(C)cc4[nH]3)[nH]c(=O)c2c1C", "Potency": "inconclusive: 22.4 µM [inhibitor, full curve]"},
      {"molecule": "CNCc1cc(Br)c(OCC(=O)Nc2ccccc2OC)c(OC)c1", "activity, negative = inhibition": "inconclusive: -71.7% [inhibitor]"},
      {"molecule": "Cc1nc(NC(=O)c2csc3ccccc23)sc1C", "Potency": "active: 44.7 µM"},
      {"molecule": "Cc1ccc(NC(=O)N2CC3CCCN3c3ccccc32)cc1Cl", "note": "(configuration not stated)", "Potency": "active: 8.91 µM"},
      {"molecule": "O=C(CCN1N=C(c2ccccc2)CCC1=O)NCCCN1CCOCC1", "Potency": "active: 50.1 µM"},
      {"molecule": "C=CCn1c(=O)c2c(nc(-c3ccc(S(=O)(=O)O)cc3)n2C)n(C)c1=O", "Potency": "active: 3.55 µM and active: 11.9 µM"},
      {"molecule": "COc1ccc(C)cc1NS(=O)(=O)c1cnc(N)nc1", "activity, negative = inhibition": "inactive: -30.5%"},
      {"molecule": "CC(C)CNC(=O)CSc1nnc2ccccn12", "Potency": "active: 44.7 µM"},
      {"molecule": "O=C(c1cc2ccc3cccnc3c2[nH]1)N1CCCCC1", "activity, negative = inhibition": "inactive: -18.9%"},
      {"molecule": "Cc1nc(C)c(C(=O)N/N=C/c2ccco2)s1", "Potency": "inconclusive: 50.1 µM [inhibitor, partial curve, poor fit]"},
      {"molecule": "O=C(Nc1ccccc1C(=O)O)c1ccc(NC(=O)c2ccc(Br)o2)cc1", "Potency": "inconclusive: 89.1 µM [inhibitor, single point]"},
      {"molecule": "CCOC(=O)CSc1nnc(CNc2ccc(Cl)cc2)n1Cc1ccccc1", "activity, negative = inhibition": "inactive: -14.5%"},
      {"molecule": "Cc1ccc2cc(CNC(C)C)c(=O)[nH]c2c1", "Potency": "inconclusive: 11.2 µM [inhibitor, partial curve]"},
      {"molecule": "Cc1cc(-n2c(C)cc(C(=O)COc3ccccc3[N+](=O)[O-])c2C)no1", "Potency": "inconclusive: 44.7 µM [inhibitor, partial curve]"},
      {"molecule": "Cc1cccc(NC(=O)CNC(=O)Cc2ccc3c(c2)OCCO3)c1C", "activity, negative = inhibition": "inactive: -4.98% [at 2.33 µM]"},
      {"molecule": "CCc1cc(/C(Cc2ccccn2)=N\\Nc2ccccc2)c(O)cc1O", "Potency": "active: 2.51 µM"},
      {"molecule": "Cc1ccc(-c2nnn(CC(=O)N(c3cccc(F)c3)C(C(=O)NC(C)(C)C)c3ccco3)n2)o1", "note": "(configuration not stated)", "Potency": "active: 50.1 µM"},
      {"molecule": "COc1cc(/C=C/C(=O)NNc2c(F)c(F)cc(F)c2F)ccc1OC(F)F", "Potency": "inconclusive: 89.1 µM [inhibitor, single point]"},
      {"molecule": "Cc1cccc(S(=O)(=O)NNC(=O)c2sc(C)nc2C)c1", "Potency": "inconclusive: 31.6 µM [inhibitor, single point]"},
      {"molecule": "Cc1nc(SCC(=O)c2ccccc2)c([N+](=O)[O-])[nH]1", "Potency": "inconclusive: 39.8 µM [inhibitor, single point]"},
      {"molecule": "O=c1c([N+](=O)[O-])c(O)c2ccccc2n1Cc1ccccc1", "Potency": "active: 28.2 µM"},
      {"molecule": "CCOC(=O)c1cccc(NS(=O)(=O)c2c(C(=O)N3CCCCCC3)c(C)n(C)c2C)c1", "Potency": "inconclusive: 5.01 µM [inhibitor, partial curve, poor fit]"},
      {"molecule": "COc1ccccc1-n1c(C)nc2cc(C(=O)NCCN3CCOCC3)ccc21", "Potency": "inconclusive: 89.1 µM [inhibitor, partial curve, poor fit]"},
      {"molecule": "CCn1cc(C(=O)O)c(=O)c2cc(OC)ccc21", "Potency": "inconclusive: 1.58 µM [inhibitor, single point]"},
      {"molecule": "O=C(COc1cc(F)ccc1[N+](=O)[O-])Nc1cc(S(=O)(=O)N2CCCC2)ccc1Cl", "activity, negative = inhibition": "inactive: -10.9% [at 102 µM]"},
      {"molecule": "Cc1ccc(C(=O)NCC(=O)NCCCc2ccccc2)s1", "Potency": "inconclusive: 89.1 µM [inhibitor, partial curve, poor fit]"},
      {"molecule": "CC(=O)Nc1ccc(-c2cc(-c3ccccc3)nc(-c3ccccc3)n2)cc1", "Potency": "inconclusive: 35.5 µM [inhibitor, single point]"},
      {"molecule": "O=C(CCn1cccc1)Nc1cc(F)ccc1F", "Potency": "inconclusive: 79.4 µM [inhibitor, single point]"},
      {"molecule": "Cc1ccc2nc(SCC(=O)Nc3ccc(C)c([N+](=O)[O-])c3)[nH]c2c1", "Potency": "active: 11.2 µM"},
      {"molecule": "O=S(=O)(c1cccs1)N1CN(Cc2cccs2)c2nc3ccccc3nc21", "Potency": "inconclusive: 20 µM [inhibitor, single point]"},
      {"molecule": "N#CC1=C(N)Oc2n[nH]c(-c3ccc(F)cc3)c2C1c1cccnc1", "note": "(configuration not stated)", "Potency": "inconclusive: 100 µM [inhibitor, single point]"},
      {"molecule": "O=C(Nc1cccc(C(F)(F)F)c1)c1ccccc1NC(=O)C1CCCCC1", "activity, negative = inhibition": "inactive: 14.2%"},
      {"molecule": "CCOc1ccc(-c2nc(CSCC(=O)N3CCN(C(=O)c4ccco4)CC3)c(C)o2)cc1", "Potency": "active: 50.1 µM"},
      {"molecule": "CCn1nc(CC(C)C)cc1C(=O)N1CCCC(Nc2ccc(OC)cc2)C1", "note": "(configuration not stated)", "Potency": "inconclusive: 89.1 µM [inhibitor, single point]"},
      {"molecule": "COc1cc(NC(=O)CN(c2ccc(C)cc2)S(=O)(=O)c2c(C)n[nH]c2C)cc(OC)c1", "Potency": "inconclusive: 89.1 µM [inhibitor, single point]"},
      {"molecule": "Oc1ccc(Cn2ccnc2)c2cccnc12", "Potency": "inconclusive: 89.1 µM [inhibitor, single point]"},
      {"molecule": "COc1cc(C(=O)NCCN2C(=O)S/C(=C\\c3ccc(F)cc3)C2=O)ccc1OCC(=O)N1CCOCC1", "activity, negative = inhibition": "inactive: 12.4%"},
      {"molecule": "N#C/C(=C/c1ccc(N2CCCCC2)o1)C(=O)Nc1ccc2ccccc2c1", "Potency": "inconclusive: 22.4 µM [inhibitor, single point]"},
      {"molecule": "CCCCCCNC(=O)CSc1nccn1Cc1ccccc1", "Potency": "inconclusive: 79.4 µM [inhibitor, single point]"},
      {"molecule": "COCCCN1CN(S(=O)(=O)c2ccc(Cl)cc2)c2nc3ccccc3nc21", "Potency": "active: 28.2 µM"},
      {"molecule": "CCOc1ccccc1C1CC(=O)Nc2cc3c(cc21)OCCO3", "note": "(configuration not stated)", "Potency": "inconclusive: 100 µM [inhibitor, single point]"},
      {"molecule": "Cc1ccc(CN(Cc2ccco2)C(=O)c2ccccc2Br)o1", "Potency": "inconclusive: 31.6 µM [inhibitor, partial curve, poor fit]"},
      {"molecule": "COc1ccc(OCc2cccc(C(=O)O)c2)cc1", "Potency": "inconclusive: 4.47 µM [inhibitor, partial curve, poor fit]"},
      {"molecule": "Cc1ccc([N+](=O)[O-])cc1S(=O)(=O)n1ccnc1C", "Potency": "inconclusive: 28.2 µM [inhibitor, partial curve]"},
      {"molecule": "CC(CCN1CCN(c2ccccc2)CC1)c1ccccc1", "note": "(configuration not stated)", "Potency": "inconclusive: 79.4 µM [inhibitor, single point]"},
      {"molecule": "Cc1cc(/C=C2/C(=N)N3C(=NC2=O)SN=C3S(C)(=O)=O)c(C)n1-c1ccccc1F", "Potency": "active: 50.1 µM"},
      {"molecule": "Cc1cc(C)cc(N=C2SC(CC(=O)Nc3ccccc3)C(=O)N2CCN2CCOCC2)c1", "note": "(configuration not stated)", "Potency": "active: 50.1 µM"},
      {"molecule": "Cc1ccc(CNC(=O)C(=O)Nc2nccs2)cc1", "Potency": "active: 17.8 µM"},
      {"molecule": "CC(=O)c1c(C)oc2ccc(NS(=O)(=O)c3ccc(C)cc3)cc12", "activity, negative = inhibition": "inactive: 26.5%"},
      {"molecule": "COc1cc(NC(=O)Nc2ccccc2OC)c(OC)cc1NC(=O)CN1CCCCC1", "Potency": "inconclusive: 20 µM [inhibitor, single point]"},
      {"molecule": "Cc1cc2c(=O)n(C)c(SCC(=O)Nc3cccc(O)c3)nc2s1", "Potency": "inconclusive: 50.1 µM [inhibitor, partial curve, poor fit]"},
      {"molecule": "CNC(=O)c1[nH]cnc1C(=O)NCC(=O)OCc1ccccc1", "Potency": "active: 44.7 µM"},
      {"molecule": "CCN1CCN(c2nc3c(C)cccn3c(=O)c2C=C(C#N)C#N)CC1", "Potency": "inconclusive: 56.2 µM [inhibitor, single point]"},
      {"molecule": "COc1ccc(N2C(=O)CC(N3CCN(Cc4ccc5c(c4)OCO5)CC3)C2=O)cc1", "note": "(configuration not stated)", "Potency": "active: 39.8 µM"},
      {"molecule": "O=C1C=C(c2ccc(Cl)cc2)C(=O)N1Nc1ccccc1", "Potency": "active: 7.94 µM"},
      {"molecule": "Cc1ccc(S(=O)(=O)N2CCN(C(=O)c3cccc(-n4cccc4)c3)CC2)cc1", "Potency": "active: 50.1 µM"},
      {"molecule": "CC(C)(O)C#Cc1ncc(C(F)(F)F)cc1Cl", "Potency": "inconclusive: 89.1 µM [inhibitor, partial curve, poor fit]"},
      {"molecule": "CCn1c(CNC(=O)COc2ccc(C(C)C)cc2)nnc1SCC(=O)Nc1cc(F)ccc1C", "activity, negative = inhibition": "inconclusive: -109% [inhibitor]"},
      {"molecule": "Cc1ccc(/C=N/NC(=O)CN2CCN(Cc3ccccc3)CC2)s1", "activity, negative = inhibition": "inactive: 14.1% [at 102 µM]"},
      {"molecule": "COC(=O)c1ccc2c(=O)n(CC3CCCO3)c(=S)[nH]c2c1", "note": "(configuration not stated)", "activity, negative = inhibition": "inconclusive: -62.6% [inhibitor]"},
      {"molecule": "O=C(NC1CCCCCC1)C1CCN(C(=O)c2cccc(Cl)c2)CC1", "activity, negative = inhibition": "inactive: 14.2%"},
      {"molecule": "Cc1cc(C)c2nc(N3CCC(C(=O)NCc4cccnc4)CC3)sc2c1", "Potency": "inconclusive: 89.1 µM [inhibitor, partial curve, poor fit]"},
      {"molecule": "Cc1ccc(N2CC(C(=O)O)CC2=O)cc1", "note": "(configuration not stated)", "activity, negative = inhibition": "inactive: -25.4% [at 102 µM]"},
      {"molecule": "O=C(Nc1ccccc1)c1ccccc1Oc1ccc(C(F)(F)F)cc1[N+](=O)[O-]", "Potency": "inconclusive: 17.8 µM [inhibitor, single point]"}
    ]}
  ]
}
